# The campaign covered roughly 360,000 compounds. About 520 (0.14%) were called active. Inconclusive means that the source gave no clear call. Such entries were picked first, then a sample of the others. Calls come from the whole dose curve; as a rule, active = well fitted inhibition curve with a large enough effect; inconclusive = small, poorly fitted or top-dose-only effect; inactive = no such curve, though single readings can be large or run the other way. Potencies of inconclusive entries are left out as doubtful fits.
# Target: Rap guanine nucleotide exchange factor 3 (Homo sapiens) (UniProt O95398)
# UniProt O95398, sequence (O95398 whole entry, looked up): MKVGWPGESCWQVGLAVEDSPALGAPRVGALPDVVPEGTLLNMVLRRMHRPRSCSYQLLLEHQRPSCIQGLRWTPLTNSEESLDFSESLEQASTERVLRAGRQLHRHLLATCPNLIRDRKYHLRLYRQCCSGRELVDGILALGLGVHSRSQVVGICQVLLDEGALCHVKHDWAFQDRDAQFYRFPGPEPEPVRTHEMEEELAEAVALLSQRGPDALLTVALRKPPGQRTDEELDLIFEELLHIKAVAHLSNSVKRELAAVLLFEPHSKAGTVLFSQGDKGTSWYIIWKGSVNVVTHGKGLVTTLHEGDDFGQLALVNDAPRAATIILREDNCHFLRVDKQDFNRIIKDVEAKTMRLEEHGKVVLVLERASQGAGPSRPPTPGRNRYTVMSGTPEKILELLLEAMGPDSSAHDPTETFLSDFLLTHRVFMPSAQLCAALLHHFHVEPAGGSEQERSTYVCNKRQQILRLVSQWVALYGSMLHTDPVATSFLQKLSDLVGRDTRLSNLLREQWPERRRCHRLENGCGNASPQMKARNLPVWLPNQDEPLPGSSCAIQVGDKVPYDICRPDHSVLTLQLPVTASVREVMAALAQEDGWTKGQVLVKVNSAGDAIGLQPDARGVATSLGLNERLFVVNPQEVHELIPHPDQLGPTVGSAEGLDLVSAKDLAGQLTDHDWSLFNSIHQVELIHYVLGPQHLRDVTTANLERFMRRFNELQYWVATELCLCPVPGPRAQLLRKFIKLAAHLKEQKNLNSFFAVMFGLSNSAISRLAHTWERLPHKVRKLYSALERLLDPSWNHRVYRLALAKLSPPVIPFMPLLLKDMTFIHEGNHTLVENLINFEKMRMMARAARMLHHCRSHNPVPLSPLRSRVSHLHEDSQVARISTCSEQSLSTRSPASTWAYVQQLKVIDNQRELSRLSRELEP
# Assay: qHTS for Antagonist of cAMP-regulated guanine nucleotide exchange factor 3 (EPAC1): primary screen; note: nearly all actives have a fitted effect of over 50% in size
# Conditions: EPAC1 GEF assay, Rap1b-BODIPY-GDP exchange fluorescence; series mostly up to 115 µM
# Potency is the fitted concentration of half-maximal effect; tags give direction and shape of the fitted curve.
row,SMILES,Potency
1,COc1ccccc1CNCc1cc(OC)c(OC)c(OC)c1,inactive
2,Nc1nc(Nc2ccccc2F)nc(NC2CCCCC2)c1[N+](=O)[O-],"inconclusive [inhibitor, partial curve, poor fit]"
3,COc1ccc(-c2sc(NC(C)=O)nc2-c2ccccc2)cc1,"inconclusive [inhibitor, partial curve, poor fit]"
4,NC(=O)C1(Nc2ccc(-c3ccc(Br)cc3)cc2)CCCC1,"inconclusive [inhibitor, full curve, poor fit]"
5,O=C1CN(c2ccccc2)C(=S)N1c1ccccc1,"inconclusive [inhibitor, partial curve]"
6,O=C(Nc1cccc(Cl)c1)N(Cc1nc2ccccc2c(=O)[nH]1)Cc1cccs1,inactive
7,COc1ccc(CC(=O)N/N=C\c2cc(Br)c(O)c(Br)c2)cc1,inactive
8,COc1cc(OC)cc(C2=Cc3ccc(OC)cc3C(CC(C)=O)N2c2ccc(C#CC3(N)CCCCC3)cc2)c1 (centres undefined),"inconclusive [inhibitor, single point]"
9,CC(C)=CCN1CCN(Cc2cnc(C)s2)CC1CCO (centres undefined),"inconclusive [inhibitor, full curve, poor fit]"
10,O=c1c2ccccc2sn1-c1cccc(Cl)c1,inactive
11,CCOc1cccc(-c2nnc3sc(COc4ccccc4)nn23)c1,"inconclusive [inhibitor, single point]"
12,Cc1cc(C(=O)CCl)c(C)n1CCc1ccc(F)cc1,"inconclusive [inhibitor, partial curve]"
13,COc1ccc(-c2nc3c(Cl)cc(C(F)(F)F)cn3c2Cc2cccc(F)c2)cc1OC,"inconclusive [inhibitor, partial curve]"
14,COC(=O)[C@]12CCCCC=C1N(Cc1cccc3ccccc13)C(=O)[C@H](CC(=O)NCCC(C)C)C2,"inconclusive [inhibitor, partial curve, poor fit]"
15,C#CCOCCOCCOCCNc1nc(N2CCN(C(=O)CCCCCCCCCCNC(=O)[C@H](CCCCN)n3cc(C)nn3)CC2)nc(N2CCN(C(=O)CCCCCCCCCCNC(=O)[C@H](CCCN=C(N)N)n3cc(C[C@@H](C)CC)nn3)CC2)n1,active: 50.1 µM
16,CN(C)/N=C/c1ccc(Sc2ccccc2[N+](=O)[O-])o1,"inconclusive [inhibitor, full curve, poor fit]"
17,CC1Cn2c(nnc2-c2ccccc2O)S1 (centres undefined),"inconclusive [inhibitor, single point]"
18,COc1ccccc1-n1c(-c2ccccc2)c[n+]2c1CCc1ccccc1-2,"inconclusive [inhibitor, partial curve, poor fit]"
19,COc1ccc(Br)cc1C(=O)Nc1ccccc1N1CCN(C(=O)c2ccccc2)CC1,"inconclusive [inhibitor, partial curve, poor fit]"
20,COc1ccc(OC)c(S(=O)(=O)N2CCC(C(=O)Nc3ccc(C)c(C)c3)CC2)c1,"inconclusive [inhibitor, single point]"
21,COc1ccc(/C=C/C(=O)C23CC4CC(CC(C4)C2)C3)cc1CN1CCOCC1,"inconclusive [inhibitor, single point]"
22,CC(O)(c1ccc(F)c(F)c1)c1nc(/C=C/c2ccccc2)cs1 (centres undefined),"inconclusive [inhibitor, single point]"

row,SMILES,Potency
1,C=CCO/N=C(/C)c1ccc(Oc2cnccn2)cc1,inactive
2,CC1(C(=O)NCc2ccccc2)CSCC(=O)N1CCOc1ccccc1 (centres undefined),inactive
3,COc1cccc(C(=O)NNc2c3ccccc3nc3ccccc23)c1,"inconclusive [inhibitor, full curve, poor fit]"
4,CCC(C)Sc1ccc([C@@H]2[C@@H]3C(=O)N(CC)C(=O)[C@@H]3[C@]3(C(=O)OC)CCCCN23)cc1OC (some centres undefined),"inconclusive [inhibitor, partial curve]"
5,Cc1[nH]n(-c2ccc(Cl)c(Cl)c2)c(=O)c1CCO,"inconclusive [inhibitor, single point]"
6,Cc1ccc(S(=O)(=O)N(C)C)cc1-n1c(SCC(=O)N(C)C)nc2ccccc2c1=O,"inconclusive [inhibitor, single point]"
7,COc1ccc(CCNC(=O)c2cc(S(=O)(=O)N3CCCC3)cn2C)cc1OC,"inconclusive [inhibitor, single point]"
8,Cc1ccc(C(=O)N/N=C/c2ccc([N+](=O)[O-])s2)cc1,inactive
9,CC(C)(C)c1ccc(OCc2ccc(C(=O)N/N=C/c3ccc(O)c(O)c3)cc2)cc1,"inconclusive [inhibitor, full curve]"
10,CCCCN1CC(COCc2ccccc2)Oc2cccc(NCc3ccc(OC)cc3)c2S1(=O)=O (centres undefined),"inconclusive [inhibitor, partial curve]"
11,O=C(Nc1ccccc1C(=O)O)c1cccc(S(=O)(=O)Nc2ccc(Br)cc2)c1,"inconclusive [inhibitor, single point]"
12,CC(C)OC(=O)CSc1nc2cc3c(cc2cc1C#N)OCO3,inactive
13,CC1(C(=O)Nc2ccc3c(c2)OCCO3)CN(S(C)(=O)=O)CC(=O)N1CCc1ccccc1F (centres undefined),inactive
14,Cc1ccc(Nc2cc(C)nc3nc(C)nn23)cc1,"inconclusive [inhibitor, partial curve]"
15,COc1ccc(-c2ccnc(-c3ccc(OCCCF)cc3)n2)cc1,"inconclusive [inhibitor, partial curve, poor fit]"
16,OC(CN1c2ccccc2Sc2ccccc21)Cn1nnc2ccccc21 (centres undefined),"inconclusive [inhibitor, partial curve]"
17,COc1cc(/C=C2\C(=N)N3N=C(C)SC3=NC2=O)cc(OC)c1OCCOc1ccccc1C,inactive
18,Cc1ccc(S(=O)(=O)/N=C2/NC(=O)/C(=C/c3ccc(Br)o3)S2)cc1,inactive
19,CC(=O)Nc1cccc(-c2ccnc3c2CC(C)(C(=O)Nc2ccc(Cl)cc2)O3)c1 (centres undefined),"inconclusive [inhibitor, single point]"
20,Oc1ccccc1-c1cc(-c2ccccc2Cl)[nH]n1,"inconclusive [inhibitor, full curve, poor fit]"
21,Nc1ccccc1C(=O)NC12CC3CC(CC(C3)C1)C2,"inconclusive [inhibitor, single point]"
22,O=C(c1cnn(-c2ccccc2)c1)c1ccccc1O,"inconclusive [inhibitor, partial curve, poor fit]"

row,SMILES,Potency
1,Cc1ccc(C(O)c2ncc(-c3cccc(C(F)(F)F)c3)[nH]2)cc1 (centres undefined),"inconclusive [inhibitor, single point]"
2,O=[N+]([O-])c1cccc(CN2CCN(Cc3ccco3)CC2)c1,inactive
3,CC(C)CN(C(=O)COC(=O)c1c2c(nc3ccccc13)CCC2)c1c(N)n(Cc2ccccc2)c(=O)[nH]c1=O,"inconclusive [inhibitor, single point]"
4,CCOC(=O)COc1ccc(Br)cc1/C=C/c1[nH]c(=O)[nH]c(=O)c1[N+](=O)[O-],active: 31.6 µM
5,CC(C)(C)c1cc2nc3c(c(=O)n2[nH]1)CN(Cc1ccccc1)C3=O,inactive
6,Cc1cc(C(=O)NC2CC(C)(C)Cc3c2cnn3-c2ccc(F)cc2)no1 (centres undefined),"inconclusive [inhibitor, partial curve]"
7,CC(C)CC1C(=O)N(Cc2cn(CCC3OCCO3)nn2)CCS(=O)(=O)N1Cc1ccc(-c2ccc(F)cc2)cc1 (centres undefined),inactive
8,CC(C)C(=O)N=c1sc2cc(F)cc(F)c2n1C,"inconclusive [inhibitor, single point]"
9,Cc1cccc(C)c1NC(=O)C(c1ccc(C#N)cc1)n1c(=O)c(-c2ccco2)nc2ccccc21 (centres undefined),inactive
10,C=C1C[C@]23C[C@@]1(O)CC[C@H]2[C@@]12C=C[C@H](O)[C@@](C)(C(=O)O1)[C@H]2[C@@H]3C(=O)O,"inconclusive [inhibitor, single point]"
11,O=C(Nc1ncccn1)c1ccc([N+](=O)[O-])o1,"inconclusive [inhibitor, full curve]"
12,O=S(=O)(N/N=C/c1cccnc1)c1ccc(Cl)c(Cl)c1,"inconclusive [inhibitor, single point]"
13,CCOc1cc(/C=C(/C#N)C(=O)Nc2ccc(O)cc2)cc(Br)c1O,"inconclusive [inhibitor, single point]"
14,Cc1ccccc1CN1C[C@@H]2C[C@@H](c3cn[nH]c3-c3ccccc3)N3CCC[C@@]23C1=O,"inconclusive [inhibitor, single point]"
15,CCOC(=O)C1C(CC)NC(=S)NC1(C)O (centres undefined),"inconclusive [inhibitor, partial curve, poor fit]"
16,COCCn1c2nc(=O)n(-c3ccccc3)c(=O)c-2nc2ccccc21,inactive
17,CCCCn1c(N)c(N(C)C(=O)c2ccccc2Oc2ccccc2)c(=O)[nH]c1=O,"inconclusive [inhibitor, partial curve]"
18,COc1ccc(OC)c(NC2c3ncccc3C(=O)N2Cc2ccco2)c1 (centres undefined),inactive
19,Cc1cccc(C)c1NC(=O)CSc1nnc(-c2ccco2)c(-c2ccco2)n1,"inconclusive [inhibitor, partial curve]"
20,COc1cccc(NC(=O)c2nnn(Cc3ccc(Br)cc3F)c2N)c1,"inconclusive [inhibitor, partial curve]"

# From PubChem BioAssay AID720709 (National Center for Advancing Translational Sciences (NCATS), 2013)
